# The supplement of paper PMC8728848
# The other results are listed elsewhere or left out.
# B1: GNL (Galanthus nivalis) (protein)
# chain: MGHHHHHHHHYGTLENGHWLMVGMSIFSKDRTVELRMQDDGKLAIYYNDHCAWQSTAQQVNNAKGAVMQGDGNFCIYDKNGKATWHTNTAAPSGDSHTFVSVQDDGNLVLYKNNGATPIWSSKSNK
# Key:
# Assay in all cases: glycan array binding signal (z-score within array); higher = stronger binding
# Conditions in all cases: glycan notation: IUPAC condensed, linker removed
# [1] = biological target: Neu5Ac(a2-3)Gal(b1-4)GlcNAc(b1-6)GalNAc
# Procedure, shortened: (§1)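 The binding signal is a Z-score computed within each array and averaged over linkers. Arrays of the same protein sequence at different concentrations or buffers were also averaged together. Data originate from 3228 arrays in the Consortium for Functional Glycomics database, kept only where the protein sequence was available.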
# [2] = biological target: Neu5Ac(a2-3)Gal(b1-4)GlcNAc(b1-6)[Gal(b1-3)]GalNAc
# Procedure, shortened: as §1
# [3] = biological target: Neu5Ac(a2-3)Gal(b1-4)GlcNAc(b1-6)[Neu5Ac(a2-3)Gal(b1-3)]GalNAc
# Procedure, shortened: as §1
# [4] = biological target: Neu5Ac(a2-3)Gal(b1-4)GlcNAc6S
# Procedure, shortened: as §1
# [5] = biological target: Neu5Ac(a2-3)Gal(b1-4)[Fuc(a1-3)]GlcNAc
# Procedure, shortened: as §1
# [6] = biological target: Neu5Ac(a2-3)Gal(b1-4)[Fuc(a1-3)]GlcNAc(b1-2)Man
# Procedure, shortened: as §1
# [7] = biological target: Neu5Ac(a2-3)Gal(b1-4)[Fuc(a1-3)]GlcNAc(b1-3)Gal
# Procedure, shortened: as §1
# [8] = biological target: Neu5Ac(a2-3)Gal(b1-4)[Fuc(a1-3)]GlcNAc(b1-3)Gal(b1-4)GlcNAc
# Procedure, shortened: as §1
# [9] = biological target: Neu5Ac(a2-3)Gal(b1-4)[Fuc(a1-3)]GlcNAc(b1-3)Gal(b1-4)[Fuc(a1-3)]GlcNAc(b1-3)Gal(b1-4)[Fuc(a1-3)]GlcNAc
# Procedure, shortened: as §1
# [10] = biological target: Neu5Ac(a2-3)Gal(b1-4)[Fuc(a1-3)]GlcNAc(b1-3)GalNAc
# Procedure, shortened: as §1
# [11] = biological target: Neu5Ac(a2-3)Gal(b1-4)[Fuc(a1-3)]GlcNAc(b1-6)[Gal(b1-3)]GalNAc
# Procedure, shortened: as §1
# [12] = biological target: Neu5Ac(a2-3)Gal(b1-4)[Fuc(a1-3)]GlcNAc(b1-6)[Neu5Ac(a2-3)Gal(b1-3)]GalNAc
# Procedure, shortened: as §1
# [13] = biological target: Neu5Ac(a2-3)Gal(b1-4)[Fuc(a1-3)]GlcNAc6S
# Procedure, shortened: as §1
# [14] = biological target: Neu5Ac(a2-3)Gal6S(b1-4)GlcNAc
# Procedure, shortened: as §1
# [15] = biological target: Neu5Ac(a2-3)Gal6S(b1-4)[Fuc(a1-3)]GlcNAc
# Procedure, shortened: as §1
# Neu5Ac(a2-3)GalNAc = biological target: Neu5Ac(a2-3)GalNAc
# Procedure, shortened: as §1
# [16] = biological target: Neu5Ac(a2-3)GalNAc(b1-4)GlcNAc
# Procedure, shortened: as §1
# [17] = biological target: Neu5Ac(a2-3)[GalNAc(b1-4)]Gal(b1-4)Glc
# Procedure, shortened: as §1
# [18] = biological target: Neu5Ac(a2-3)[GalNAc(b1-4)]Gal(b1-4)GlcNAc
# Procedure, shortened: as §1
# [19] = biological target: Neu5Ac(a2-3)[GalNAc(b1-4)]Gal(b1-4)GlcNAc(b1-3)GalNAc
# Procedure, shortened: as §1
# [20] = biological target: Neu5Ac(a2-3)[Neu5Ac(a2-6)]GalNAc
# Procedure, shortened: as §1
# Neu5Ac(a2-6)Gal = biological target: Neu5Ac(a2-6)Gal
# Procedure, shortened: as §1
# [21] = biological target: Neu5Ac(a2-6)Gal(b1-3)GlcNAc(b1-3)[Gal(b1-4)GlcNAc(b1-6)]Gal(b1-4)Glc
# Procedure, shortened: as §1
# Neu5Ac(a2-6)Gal(b1-4)Glc = biological target: Neu5Ac(a2-6)Gal(b1-4)Glc
# Procedure, shortened: as §1
# [22] = biological target: Neu5Ac(a2-6)Gal(b1-4)GlcNAc
# Procedure, shortened: as §1
# [23] = biological target: Neu5Ac(a2-6)Gal(b1-4)GlcNAc(b1-2)Man
# Procedure, shortened: as §1
# [24] = biological target: Neu5Ac(a2-6)Gal(b1-4)GlcNAc(b1-2)Man(a1-3)Man(b1-4)GlcNAc(b1-4)GlcNAc
# Procedure, shortened: as §1
# [25] = biological target: Neu5Ac(a2-6)Gal(b1-4)GlcNAc(b1-2)Man(a1-3)[Gal(b1-4)GlcNAc(b1-2)Man(a1-6)]Man(b1-4)GlcNAc(b1-4)GlcNAc
# Procedure, shortened: as §1
# [26] = biological target: Neu5Ac(a2-6)Gal(b1-4)GlcNAc(b1-2)Man(a1-3)[GlcNAc(b1-2)Man(a1-6)]Man(b1-4)GlcNAc(b1-4)GlcNAc
# Procedure, shortened: as §1
# [27] = biological target: Neu5Ac(a2-6)Gal(b1-4)GlcNAc(b1-2)Man(a1-3)[GlcNAc(b1-4)][Neu5Ac(a2-6)Gal(b1-4)GlcNAc(b1-2)Man(a1-6)]Man(b1-4)GlcNAc(b1-4)GlcNAc
# Procedure, shortened: as §1
# [28] = biological target: Neu5Ac(a2-6)Gal(b1-4)GlcNAc(b1-2)Man(a1-3)[Man(a1-6)]Man(b1-4)GlcNAc(b1-4)GlcNAc
# Procedure, shortened: as §1
binder,measurement,setting,value
B1,glycan array binding signal (z-score),[1],-0.087
same,glycan array binding signal (z-score),[2],-0.195
same,glycan array binding signal (z-score),[3],-0.286
same,glycan array binding signal (z-score),[4],0.018
same,glycan array binding signal (z-score),[5],-0.283
same,glycan array binding signal (z-score),[6],-0.295
same,glycan array binding signal (z-score),[7],-0.288
same,glycan array binding signal (z-score),[8],-0.117
same,glycan array binding signal (z-score),[9],-0.213
same,glycan array binding signal (z-score),[10],-0.126
same,glycan array binding signal (z-score),[11],-0.252
same,glycan array binding signal (z-score),[12],-0.193
same,glycan array binding signal (z-score),[13],-0.243
same,glycan array binding signal (z-score),[14],-0.109
same,glycan array binding signal (z-score),[15],-0.324
same,glycan array binding signal (z-score),Neu5Ac(a2-3)GalNAc,-0.251
same,glycan array binding signal (z-score),[16],-0.177
same,glycan array binding signal (z-score),[17],-0.285
same,glycan array binding signal (z-score),[18],-0.244
same,glycan array binding signal (z-score),[19],-0.223
same,glycan array binding signal (z-score),[20],-0.187
same,glycan array binding signal (z-score),Neu5Ac(a2-6)Gal,-0.171
same,glycan array binding signal (z-score),[21],-0.193
same,glycan array binding signal (z-score),Neu5Ac(a2-6)Gal(b1-4)Glc,-0.189
same,glycan array binding signal (z-score),[22],-0.232
same,glycan array binding signal (z-score),[23],-0.239
same,glycan array binding signal (z-score),[24],0.107
same,glycan array binding signal (z-score),[25],0.864
same,glycan array binding signal (z-score),[26],1.6
same,glycan array binding signal (z-score),[27],-0.259
same,glycan array binding signal (z-score),[28],5.43
